Reference: the RNAGym collection of RNA variant scans (doi:10.7554/elife.90254)
Read counts are not given, so values of variants with three or more changes are uncertain.

B1: LINE1-full (parent)
chain: UACGUAGGUGGUUUUCCCCUGAUAGUGCUAAGGGGGCCUGGAAGUUUGGACUGGGCAGAGCUCAACACAGCGUGGCAAAGUGGCUGUGGCUAGACUGCCUCUCUGGAUUCCUCGUCACUCAGCAGGGCAUCUCUGAGAGAAAUGCC

Variants of: B1
Experiment: self-cleavage, relative activity (ratio to wild type); higher = more cleavage; in vitro, sequencing; the parent is a self-cleaving ribozyme
U104A U108C C123U showed a self-cleavage of 2.01. In the case of U5A G58C A129G, the self-cleavage is reported as 0.15. In the case of A64U A79U U104A, the self-cleavage is reported as 0.54. G32A A50G C133A U134C gave a self-cleavage of 0.96. With A64G U104C A141G the self-cleavage was 0.45. Variant U14A A24G A57G A65G has a self-cleavage of 0. In the case of A64U A77U A79G U81C, the self-cleavage is reported as 0.12. U1A G53U U96C U130C showed a self-cleavage of 0.15. For U20A U46A A57U, the self-cleavage was 0.14. Work on U14C U47C A78G C103U G135U yielded a self-cleavage of 1.84. G10A U39C A64G gave a self-cleavage of 0.27. Variant U13C G32A A59G G106A has a self-cleavage of 0.11. A94U C113U A121G A138G gave a self-cleavage of 0.36. In the case of U12C A43G G105U A121G U143C, the self-cleavage is reported as 2.81. U15C U47C U130C showed a self-cleavage of 1.53. U9G A22G G48U gave a self-cleavage of 0.41. Variant A24G A57G U81A has a self-cleavage of 1.48. For C63U A67U A142G, the self-cleavage was 0.05. U104A U112C A136G gave a self-cleavage of 2.04. Work on G25A U47C A117G yielded a self-cleavage of 1.39. For U12G G54A A140G, the self-cleavage was 0.51. U12C A24G G75A U81G gave a self-cleavage of 0.78. A31U U39C G40C U108C A136G showed a self-cleavage of 0. U13C G33A A124U showed a self-cleavage of 0.92. Work on U81A U112A A138G yielded a self-cleavage of 2.03. With A24G U26C A57U A138G the self-cleavage was 0.25. C19U G75A A129G gave a self-cleavage of 1.58. Work on U26A G48A A69U A141G yielded a self-cleavage of 0. For A78G U85C G114A U132C, the self-cleavage was 0.07. Variant U62C A64U G86U U87A A138G has a self-cleavage of 0.05. With U5A U62C U85C U119C the self-cleavage was 0. Variant U1C A78U A107U has a self-cleavage of 1.68. G54A A64G U85A gave a self-cleavage of 0.03. For A30G U39C A65G U119A A140G, the self-cleavage was 1.15. G53U U109C G122A showed a self-cleavage of 1.55. Variant C18U C28U U104G G125A has a self-cleavage of 1.87. Variant U14C A24G U87A U112A G139A has a self-cleavage of 0. A65U U132C G139A gave a self-cleavage of 0.13. A117G A136G A142G gave a self-cleavage of 0.77. G32U U73A U104C U134C gave a self-cleavage of 1.75. For U46C A64G A124U, the self-cleavage was 0.36. C37U G40A A78C showed a self-cleavage of 1.38. Work on A42U A79G A136G yielded a self-cleavage of 2.08. For G33A G82U A138G, the self-cleavage was 2.02. For A43U U100C U130C, the self-cleavage was 1.19. U20C U26C U45C U108C C116A C120U gave a self-cleavage of 1.79. With U15C A22G A42U A59U A69U the self-cleavage was 0.11. In the case of A92G C123U A138G, the self-cleavage is reported as 0. For U9C A42G U100A A117G, the self-cleavage was 0. G41A G54U A107G U108C gave a self-cleavage of 1.17. With A6U U13C A69G U130A the self-cleavage was 0.42. In the case of A24G A42U A64U U91C G114A, the self-cleavage is reported as 0.19. For U5C G8U G34U C123U, the self-cleavage was 1.64. U87A A92U A136G gave a self-cleavage of 0.07. Work on U12C U26C U62A yielded a self-cleavage of 0.1. Work on G33A U112A A140G yielded a self-cleavage of 0.96. A43G U73A A94U U104A showed a self-cleavage of 0.22. In the case of G36A U119A A121G, the self-cleavage is reported as 1.15. C16U U96C U134G gave a self-cleavage of 0.12. U5A A6G U115C gave a self-cleavage of 0.74. For U52A A79G G125U, the self-cleavage was 1.16. In the case of U1C U12G A42G A141G U143C, the self-cleavage is reported as 2.45. Work on G48A U96C U143C yielded a self-cleavage of 0.08. For U15C U96A A141U, the self-cleavage was 0.07. In the case of C17U A30U A77G U112C, the self-cleavage is reported as 1.84. With U20C U39C U73A the self-cleavage was 2.02. U15A U39A A43G U45G A69U gave a self-cleavage of 0.24. U47G A65U A136G showed a self-cleavage of 0. U87C G88U U109C showed a self-cleavage of 0.11. A50G G106U U130C gave a self-cleavage of 0.71. Work on U13C U46A A59C G127A yielded a self-cleavage of 0.79. Variant A30G A42U U87C has a self-cleavage of 0.34. In the case of U15C A124C U134A A142G, the self-cleavage is reported as 0.88. Variant U20A U45C U87A has a self-cleavage of 0.07. In the case of C51U A94G A138G, the self-cleavage is reported as 0.1. Work on U45G A78G A94G yielded a self-cleavage of 0.19. In the case of A42G A43G A124G A141G, the self-cleavage is reported as 2.04. Variant U13C A43G U62C U112C U119A A141G has a self-cleavage of 0. U45C A117G A136G gave a self-cleavage of 2.3. U20A U112C U119A gave a self-cleavage of 1.54. A30G A117U A138G A140G showed a self-cleavage of 0.38. For U1C A64U U143A, the self-cleavage was 0.27. With C38U U73A A141G the self-cleavage was 2.42. With U13C A42G A50G U81A U134A the self-cleavage was 0.79. For U12C U85C U112C, the self-cleavage was 0. With U12C A59G U87A the self-cleavage was 0.15. A6G A22U U73C showed a self-cleavage of 0.3. Work on U20G C90U U91A U108C U130A yielded a self-cleavage of 0.07. In the case of U73C U132C A140U, the self-cleavage is reported as 2.49. Variant U9C U14C A69G A77G U96A U115A has a self-cleavage of 0. Work on A42G U46C C118U A121C C123U A124U yielded a self-cleavage of 1.96. Variant U47A U62C U119G U143A has a self-cleavage of 0.15. Variant A6G U13C U96C has a self-cleavage of 0.77. In the case of U39A U45A U115C, the self-cleavage is reported as 1.77. For A42G A65C U130G, the self-cleavage was 0. In the case of U45C C68U G72A, the self-cleavage is reported as 0.06. With C84G C99U U143A the self-cleavage was 0.1. Work on A43G G58A G75A U96C yielded a self-cleavage of 0. Work on U14C U81A G126A A141G yielded a self-cleavage of 1.79. In the case of U46A C99A U109C U143A, the self-cleavage is reported as 0.14. Variant U26A U96A C146U has a self-cleavage of 0.04. In the case of U15C U29A A57G C71U A107G, the self-cleavage is reported as 0.57. With U1A A24U U62C G93U the self-cleavage was 0.02. A57C A69G A136U showed a self-cleavage of 0. For U85G G88A A121G A141G, the self-cleavage was 0.09. In the case of A50G A77U U132C, the self-cleavage is reported as 1. With G8A U47C U62A the self-cleavage was 0.02. C19U U96C A141U showed a self-cleavage of 0.05. For U26C U85A U109C, the self-cleavage was 0.17. For U13C A22G U26C U52C G86A A142G, the self-cleavage was 0.28. For U39A A42U A77G, the self-cleavage was 1.65. With U9C G10U A59U C71U the self-cleavage was 0.09. In the case of U12C U15A G40C A50G C51U, the self-cleavage is reported as 0.67. Variant A2G U47C U52C A64G U87A C120U has a self-cleavage of 0.4. Variant A64G G88A U119C has a self-cleavage of 0.06. In the case of U45G A77U U96C C118U, the self-cleavage is reported as 0.1. Variant A2G U73G A94G has a self-cleavage of 0. For A31G A67U A69G G83C A107G, the self-cleavage was 0. In the case of G27A C37U U87C, the self-cleavage is reported as 0.06. U9C U26A G35A U96A showed a self-cleavage of 0.12. For G32U U52C G70A A107G, the self-cleavage was 0.09. In the case of U20C A78G A136G, the self-cleavage is reported as 2.38. Work on A43G A59G G114A A129G yielded a self-cleavage of 0.18. In the case of U52C A77U U119C U132C, the self-cleavage is reported as 2.57. For A65G A69G U85A U104C, the self-cleavage was 0. U39A U46G U62C A64U U100A gave a self-cleavage of 0. With U14C G34U A43U U115C A121G A142U the self-cleavage was 1.42. In the case of U13A U26C U73C A79G C103A C145U, the self-cleavage is reported as 1.23. U13C A42U A124G U132A showed a self-cleavage of 0.72. A50G A69G U119C showed a self-cleavage of 0. G21U U85C U119A A121U G122A gave a self-cleavage of 0.14. Work on A31G U104C A124U U143C yielded a self-cleavage of 0.98. Variant U81C U112C U119A has a self-cleavage of 0.75. In the case of U20C A64U A92G C95U, the self-cleavage is reported as 0.09. U62C U115A U130C showed a self-cleavage of 0.04. For A42G U73C A92U A121G, the self-cleavage was 0.77. A22G A57U A79G showed a self-cleavage of 0.15. For U39A A65G A129G A136U, the self-cleavage was 0. With U23A A79G A136G the self-cleavage was 1.53. U46C C123U A140G gave a self-cleavage of 1.46. For U20A G34U G82A, the self-cleavage was 1.98. A2U A31U U52A U85A C123U showed a self-cleavage of 0.08. With U14C U73A G86U the self-cleavage was 0.06. With U46C A136G A140G the self-cleavage was 1.88. With U14C G25A A31U U100A U104C A142G the self-cleavage was 2.04. Variant A22G U39C A78G U102C has a self-cleavage of 0. With U15C U23C A94G U102C the self-cleavage was 0. Work on U26A A69G A77G A142U yielded a self-cleavage of 0. U46A U85A U96C A107G showed a self-cleavage of 0.12. Work on U23C C56U A69G A79G U104A U109A A142G yielded a self-cleavage of 0. Work on U14C U47C A107G C133A A142G yielded a self-cleavage of 0.71. Variant U47G A77G U96G has a self-cleavage of 0.32. Variant U52A G53A U85C has a self-cleavage of 0.21. A50G U62C C118U A121G showed a self-cleavage of 0.09. Variant C19U A43G C51U A65G C116A has a self-cleavage of 0.08. For A64U A92G A138G, the self-cleavage was 0.18. For U62C U73A U96A, the self-cleavage was 0.11. Work on A42G A79G G88A U102C U112C yielded a self-cleavage of 0. For U14C A30G U39C U46A U96G, the self-cleavage was 0. Work on C37G G55U U115C yielded a self-cleavage of 0.36. Work on A69G A77G U134A yielded a self-cleavage of 0. Work on U26C U39A A78G A140G U143C yielded a self-cleavage of 0.55. For A22G G135A A140G, the self-cleavage was 0.96. Work on G60U U81A A136G yielded a self-cleavage of 0.03. For U15C A31G U108A U132A, the self-cleavage was 1.39. A69G A79G A140G showed a self-cleavage of 0. With A22G U45C U81A the self-cleavage was 1.77.
